# In all, about 310,000 compounds went through this assay and about 18,000 (5.8%) were called active. Inconclusive results, whose numbers are uncertain, are shown with a selection of clear calls. The call rests on the fitted dose curve; in most records, active means well fitted inhibition curve with a large enough effect; inconclusive means small, poorly fitted or top-dose-only effect, or another doubt; inactive means no such curve, though single readings can be large or run the other way. Potencies of inconclusive entries are left out as doubtful fits.
# Assay: Primary qHTS for delayed death inhibitors of the malarial parasite plastid, 48 hour incubation
# Conditions: P. falciparum luciferase growth in erythrocytes; series mostly up to 28.7 µM
# In short: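 Luciferase-expressing parasites in RBCs, 2% Hct / 0.1% parasitemia final; RPMI 1640 + 0.5% Albumax; 37 C, 5% CO2, one generation; luminescence read-out, lower signal = inhibition.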
# Potency means the concentration at half of the fitted maximal effect; tags describe the fitted curve by direction and shape.
row,SMILES,Potency
1,Cn1nnnc1Sc1ncnc2scc(-c3ccccc3C(F)(F)F)c12,active: 13.1 µM
2,Cc1ccc(Sc2cc(C(=O)NCCN(C)C)c3ccccc3n2)cc1,"inconclusive [inhibitor, single point]"
3,CC1=NN(c2ccc(C(=O)OC(C)C)cc2)C(=O)/C1=C\C=C\c1ccco1,active: 2.94 µM
4,CC1CC(C)CN(S(=O)(=O)N2CCCC(C(=O)NC(C)c3ccccc3)C2)C1 (stereo not drawn),"inconclusive [inhibitor, single point]"
5,CCCCn1c(N)c(N(CCOC)C(=O)CSc2ccccc2C)c(=O)[nH]c1=O,"inconclusive [inhibitor, single point]"
6,CC(=O)C1=NN(c2ccccc2)C2(S1)S/C(=C\c1ccccc1)C(=O)N2c1ccccc1 (stereo not drawn),active: 11.7 µM
7,CCOC(=O)Nc1ccc2c(CN3C(=O)NC4(CCCC4)C3=O)cc(=O)oc2c1,"inconclusive [inhibitor, single point]"
8,CC(C)CNC(=O)c1ccccc1NC(=O)CN(c1ccc2c(c1)OCCO2)S(C)(=O)=O,"inconclusive [inhibitor, partial curve, poor fit]"
9,CC(C)NC(=S)NC(=O)/C=C/c1ccc(F)cc1,inactive
10,Cc1nn(-c2ccccc2)c2sc(C(=O)N(CC(=O)NC3CCCC3)Cc3ccco3)cc12,active: 11.7 µM
11,O=C(NCCOC(=O)c1ccc(Cl)c(S(=O)(=O)N2CCCCC2)c1)c1ccncc1,"inconclusive [inhibitor, partial curve, poor fit]"
12,CC1=NNC(=O)/C1=C\c1cn(-c2ccccc2)nc1-c1cccs1,"inconclusive [inhibitor, partial curve, poor fit]"
13,Cc1ccc(C)c(S(=O)(=O)Nc2ccccc2C(=O)Nc2ccccc2N2CCOCC2)c1,"inconclusive [inhibitor, single point]"
14,CCOc1cc(C(=S)N2CCOCC2)ccc1OS(=O)(=O)c1ccc(C)cc1,inactive
15,CC(C)C(=O)NC(NC(=S)Nc1ccc(S(N)(=O)=O)cc1)C(Cl)(Cl)Cl (stereo not drawn),"inconclusive [inhibitor, single point]"
16,O=C(c1cnn2c(C(F)(F)F)cc(-c3ccco3)nc12)N1CCCCCC1,"inconclusive [inhibitor, partial curve, poor fit]"
17,CCCCc1ccc(NC(=O)CN(C)CC(=O)Nc2ccccc2Cl)cc1,"inconclusive [inhibitor, single point]"
18,CCCOP(=O)(OCCC)C(Nc1cccc(C(F)(F)F)c1)c1ccc(C)cc1 (stereo not drawn),"inconclusive [inhibitor, single point]"
19,Cc1ccc(-n2nnnc2SCCNS(=O)(=O)c2ccccc2)cc1C,"inconclusive [inhibitor, partial curve, poor fit]"
20,COc1cc2[nH]c(C(=O)N(C)Cc3ccccc3)cc2c(OC)c1OC,"inconclusive [inhibitor, single point]"
21,COc1ccc(N2CCN(C(c3cc(OC)ccc3OC)c3nnnn3Cc3ccco3)CC2)cc1 (stereo not drawn),active: 13.1 µM
22,COc1ccc(C)cc1NC(=O)CNc1ccccc1CN(C)C1CCCCC1,active: 14.7 µM

row,SMILES,Potency
1,COc1ccccc1N1CCN(C(=O)CCNC(=O)c2ccco2)CC1,inactive
2,FC(F)(F)c1cccc(NC(=S)NCc2ccccc2)c1,"inconclusive [inhibitor, partial curve, poor fit]"
3,O=C(NCCCn1ccnc1)c1cnn2c1NC(c1ccccc1)CC2C(F)(F)F (stereo not drawn),"inconclusive [inhibitor, single point]"
4,O=C(c1cccn2c(=O)c3ccccc3nc12)N1CCN(Cc2ccc3c(c2)OCO3)CC1,"inconclusive [inhibitor, partial curve]"
5,CCN(CC)CCCn1c2c(c(SCC(=O)Nc3cc(C)on3)nc1=O)CCC2,"inconclusive [inhibitor, single point]"
6,O=C(CSc1ccc2nnc(-c3ccccn3)n2n1)Nc1ccc2c(c1)OCO2,active: 3.7 µM
7,CCCCN(C)CC(O)Cn1cc(/C=C/C(=O)c2ccc(OCC)cc2)c2ccccc21 (stereo not drawn),active: 5.22 µM
8,CCCOc1cccc(C(=O)NCCCNC(=O)c2cccnc2)c1,inactive
9,CC(C)(O)[C@H]1O[C@H]2CC[C@@]3(C)[C@@](O)(CC[C@H]4Cc5c([nH]c6ccccc56)[C@@]43C)C2=CC1=O,"inconclusive [inhibitor, single point]"
10,CC(=O)C1=C(O)C(=O)N(CCCCCC(=O)O)C1c1ccc(N(C)C)cc1 (stereo not drawn),inactive
11,c1coc(-c2nnc(-c3ccco3)nn2)c1,"inconclusive [inhibitor, single point]"
12,CC(C)OC(=O)CSc1nnc(COc2ccc([N+](=O)[O-])cc2)n1C,"inconclusive [inhibitor, single point]"
13,COC(=O)C1=CN(C(C)c2ccccc2)C=C(C(=O)OC)C1c1cc(OC)c(OC)c(OC)c1 (stereo not drawn),active: 1.47 µM
14,O=C(NCc1csc2ccccc12)Nc1cc(Cl)cc(Cl)c1,"inconclusive [inhibitor, single point]"
15,Cc1nc(N2CCOCC2)c2c(C)c(C(=O)Nc3ccc(F)cc3F)sc2n1,inactive
16,CCCCNc1c(-c2cccc(SC3CCCCC3)c2)nc2ccc(Cl)cn12,active: 10.4 µM
17,C=CCNC(=S)N1CCN(c2cc3c(cc2F)c(=O)c(C(=O)O)cn3CC)CC1,"inconclusive [inhibitor, partial curve, poor fit]"
18,COc1ccc(-c2csc(N3C(=O)C4C5c6ccccc6C(c6ccccc65)C4C3=O)n2)cc1 (stereo not drawn),inactive
19,COc1ccc(C(=O)CCC(=O)N2CCN(c3ccccc3)CC2)cc1,inactive
20,CN(CCOc1ccc(Cl)cc1)C(=O)c1cc(-c2ccco2)nc2ccccc12,"inconclusive [inhibitor, partial curve]"
21,O=C(NC(c1ccccc1)c1ccccc1)C1(c2cccs2)CCOCC1,"inconclusive [inhibitor, partial curve, poor fit]"
